Data from the supplement of paper PMC3334620.
In all, about 33,000 sequences were measured (“E-score (-0.5 to 0.5)”: median about -0.056, highest 2% from about 0.38 on). The list shows a part of the results.

Biological target: Stb4 (UniProt P50104)
Test: PBM E-score (8-mer binding enrichment) (E-score (-0.5 to 0.5)); higher = stronger / more preferred TF binding; most listed sequences are background and not binding sites
Conditions: protein concentration: 200 nM; construct: GST-DNA-binding domain
Method in brief: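 Yeast transcription factors carrying a GST tag, as full-length proteins or DNA-binding domains, were produced by PURExpress in vitro transcription/translation. About 100-200 nM protein was applied to universal all-10-mer Agilent arrays, double-stranded by primer extension on fresh or once-stripped slides. Bound protein was detected with fluorescent anti-GST, and scans were normalised with masliner. The Universal PBM Analysis Suite gave each ungapped eight-base word, pooled with its reverse complement, an E-score, a modified Wilcoxon-Mann-Whitney statistic.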

Sequence | PBM E-score
CAGAAAAA | -0.128
CATTCTAG | -0.421
GGGCTAAA | 0.0708
ATCTCGAG | -0.0973
AGCGGGGA | 0.0136
CGGGTTTA | 0.389
ACACCGCT | -0.0884
ACACGTAC | -0.0351
CAACGGTC | -0.117
AGAGGCGA | -0.258
AGAGGCAA | -0.108
ACCTTCTA | -0.272
GCCCCATA | -0.115
GGAGGCCA | 0.0531
GAGCAATC | 0.0177
AGGTAATG | -0.0367
GCTTGGAA | -0.166
AATTTAAA | 0.0232
CTCGTGAC | -0.223
ACGACCAA | -0.163
ACACTTCG | 0.0288
CACAGAGG | -0.326
GGACCTAC | -0.0318
CCTGGCCG | -0.0778
AAATTTCT | 0.00042

Sequence | PBM E-score
CCTATGCA | -0.102
ACAATTTC | -0.0822
CATTCGGA | 0.383
CCATCCAA | -0.143
CGGGGTAA | 0.181
ATCTGCCG | 0.362
GACCACGC | -0.0599
CCACACGC | 0.0565
TCTCGCCA | -0.167
CGTTGTTC | 0.0428
CAAGTAAA | 0.0875
CGTGCTAC | -0.0417
ACCTGGTC | 0.0494
CTGGTAGA | -0.0837
AGCTTCCA | 0.0259
CTTAGAGC | -0.059
ACAGAGGT | -0.307
GGGTGGTA | 0.109
CGTTGAAC | -0.0659
AGCGATAA | -0.0303
CGTAACAC | -0.0366
ACAGGCCT | -0.146
CTCTGTAA | -0.141
GCTTCCGA | 0.473
ATATGGTG | 0.0316

Sequence | PBM E-score
CCAACTTC | -0.0561
GACCAGTA | 0.0643
GTGAATTA | -0.0848
ACCCCCAG | -0.0515
CATTAAGA | -0.226
TATGCAGA | -0.133
GGGCTCTA | 0.0116
AGCAGCCC | -0.117
ACATAAAG | -0.0881
CCCATCGA | -0.135
CGATACCG | 0.178
AAGTAGGA | -0.284
ACAGGTTC | -0.0259
ACTTGCTA | -0.196
GTAAGTGA | 0.0633
CGATATGA | 0.183
AGGACGTA | -0.0905
GGTCGGAA | 0.439
AAAACAGG | -0.238
CAGTCAAC | -0.128
ATGCACAG | -0.104
AATGTCAA | -0.0622
AGACAACC | 0.19
CAGTTTTC | 0.0444
AGCCTGAG | -0.231

Sequence | PBM E-score
GCTGAAAC | 0.0652
CATACTCC | 0.209
AGTTGCTG | -0.0319
CGCATAAG | 0.0113
AAGATACG | 0.0517
AATGCTGG | -0.0329
AGACTCGC | -0.155
ACGGGGCA | -0.13
ATTCTGGG | -0.0757
CCCGCGGA | 0.289
AAACCAAG | -0.193
GACAGCTA | -0.254
ATGAGTCG | -0.13
AATTGCTA | -0.167
CTCCTCCC | 0.0972
ACCCCCGT | -0.0992
CCTTACGC | -0.135
AATTACTA | -0.0528
CATATTAC | 0.129
CCTATGTA | -0.241
GTATAGAC | -0.101
AGCAGGTA | 0.0335
ACCAAGGC | -0.0734
CAAACCGG | 0.175
CGCAAACG | -0.0485

Sequence | PBM E-score
CGGCGCTA | 0.113
GCAGATGA | -0.138
CCTGCAAC | -0.22
ATACAGGC | -0.192
ATTAAATA | 0.152
AGATGTAC | -0.311
ATTATCAG | -0.0427
CGATGAGA | 0.0371
AGGGTAAC | -0.27
CATGTGGA | -0.201
ATCACACC | 0.241
GGGCTCAC | -0.195
AGACGAAC | -0.287
ACCAGGTC | 0.0113
CTCTACAC | -0.117
AGGATATC | 0.0132
AGTGTCCG | 0.185
ATAGTCAC | -0.107
ATCCGGGA | 0.368
GCTCTGAA | -0.0645
ACGGTAAC | 0.136
AAGGTCCC | -0.103
CTTGATCA | -0.134
CAGACCGA | 0.204
ACGAATCT | -0.00138

Sequence | PBM E-score
GCCACAAA | 0.00336
CGATTCAA | -0.136
CTTCACCA | 0.00499
AGGAAATA | 0.0284
ACACTCAG | -0.126
AATTGTAT | -0.0384
CACTTCCC | 0.0457
ATTTTGGA | -0.0131
TGTCAAAA | 0.00959
ACAGTGTC | -0.155
CTCTAGGA | -0.171
CTGAAATC | -0.0865
AAAAAAGG | 0.133
GAAAATCA | 0.106
CAGGACAA | -0.0613
CCGGCCGC | 0.139
CCGTACGA | -0.0515
AGTCATGC | -0.0165
CCCACGTA | -0.241
CCACCCCC | -0.0892
CTTGTATA | -0.132
CAAGAAAG | -0.0821
CCAATCAC | -0.0745
TCTAACAA | -0.0695
TCCCGGCA | 0.298

Sequence | PBM E-score
AGGAACCA | -0.145
AGTACTGC | -0.134
ATGTGCTG | -0.0682
GTCTGTGA | -0.234
AGGAATCA | -0.00647
AGCCCTGA | -0.232
ACTGAATC | -0.099
GAGTCGTA | -0.0616
GGCCCGTA | 0.162
AATTCTAT | -0.0705
CCTTTGCG | -0.0443
GTTGTGTA | -0.126
CGGCCACC | 0.134
GCATCGAC | -0.0573
TAACCCCA | -0.0162
CCAATGAC | -0.221
CCAGGCGA | -0.178
ATCAGCTG | -0.139
GATCGTTA | -0.0474
CACCAGAA | -0.172
TCCTAAAA | -0.159
GATGACGA | -0.131
AGGACACA | -0.174
CTTCCGAA | 0.479
ACACGGCT | 0.251

Sequence | PBM E-score
AATTGCTG | -0.143
ATACCAAC | -0.0701
GCCATGAA | 0.0133
CATACGCG | 0.163
CCCTTGCA | -0.292
GGAGACGA | 0.194
GTCAGACA | -0.0277
ATGCGGCC | -0.0252
ATATTTAG | -0.0263
GATCCGGA | 0.421
ATACGGCG | -0.00354
AATTTCGC | 0.123
ATAGCATC | -0.061
CATTCCAA | -0.2
CGCCAGAA | -0.00332
CTAGAAGA | 0.0374
AAGCTCCA | -0.205
ACCGGCCC | 0.157
TTAGGAAA | -0.0826
CGGGTATC | 0.404
GCGGTCGA | 0.0679
AGGAATAC | -0.0874
TGGGGCAA | -0.317
CATAAAGC | -0.299
GGGTTATA | 0.0301

Sequence | PBM E-score
ATACACAG | -0.189
GGGGCCCA | -0.0108
CAAATCAG | -0.326
TACGACGA | -0.0447
GGCTCATA | -0.0793
CATTCCGA | 0.449
CTGATAGC | -0.0771
AGCACCTC | -0.053
CCTAAATA | -0.0477
ACCCCAAA | -0.0209
ATATTTCA | -0.129
AACAAGGG | -0.0125
AAACAAAC | -0.0932
AAGATCTG | -0.199
CTCCCAAA | -0.171
CGCATCAA | 0.0444
AAAATGGT | -0.00372
ATTGACCC | 0.0534
ACTCAACG | -0.0775
ACGGCGCT | -0.146
ACTTAAGG | -0.0202
ATAGGTGG | -0.146
ACTTTTGG | -0.0657
AAACCGTG | -0.0408
CCGTTACA | 0.205

Sequence | PBM E-score
CCTGCAGC | -0.21
GCCGCATA | 0.104
TATCCATA | -0.0184
TGCCAACA | -0.079
AGTTAGTG | -0.0476
AAATAGAT | 0.0389
TATCGGGA | 0.361
ATGTCCTA | -0.191
ACATCCCT | 0.0026
TGTAGGAA | -0.124
AGGTTGAA | -0.0295
CACGTCCC | -0.143
AAGAGCTG | -0.153
AAATACCG | 0.286
AGGCCCAA | -0.0413
TTATAGAA | -0.304
CGCCACAG | -0.0946
ATTGAAAG | -0.0669
CCGAAATA | 0.401
CCTGTTTC | -0.108
AGCAGTCA | -0.116
CGATTCCG | 0.37
AGCTTACA | -0.0787
CTCGTAGA | -0.246
GGGAGGAA | 0.163

Sequence | PBM E-score
TAGCGGCA | 0.0954
AAACCAGC | 0.0486
GAAGTGGA | 0.0118
ACCGGCGA | 0.119
ACTGTGAT | -0.0464
CTCTATAA | -0.0492
CATATAGG | -0.153
TACTGACA | -0.119
ATAAGCAC | -0.0522
AAACTATC | -0.0321
ACATCATC | -0.0953
CTGGGTGC | -0.151
GGCCAATA | 0.133
AACGACGA | -0.0529
GAGAGCTA | -0.101
GAAGATGA | -0.157
ACCGTACA | 0.00999
GTACGCCA | -0.109
ACTAAACG | -0.105
CTGACTAC | -0.282
GACCTCCA | 0.0736
TCCGGCGA | 0.313
AACGCGGC | 0.0881
CCGGACAA | 0.186
GGAGTATA | 0.235

Sequence | PBM E-score
CGGTCTTC | 0.156
GTGATCGA | -0.0698
CCCATGAG | -0.138
ATGAATGA | -0.168
GGAAAGCC | 0.169
ATTGGCCA | -0.209
TGGTGCAA | -0.312
GTCCCTTA | -0.141
ATTAGCAA | -0.12
ACCGCCGC | 0.0939
AAAGGTTA | -0.192
ACCGCGTC | -0.0243
TATCGTAA | -0.0706
GGTGATAC | -0.125
AAAAGCAG | -0.144
CACCGCAC | -0.102
GCATGGCA | 0.0483
ACGGGTAA | 0.328
CAGCTTGG | -0.142
GCGAAACC | 0.0204
GCGCCCAA | -0.0252
TCTATAGA | -0.159
AAAGGAAC | -0.0801
AGGCCCAT | -0.174
GAGGCCCC | 0.0227

Sequence | PBM E-score
CTAACCTC | 0.0386
CCGAGAGC | 0.388
AGTCTCAC | -0.0748
CATGAACG | -0.179
GGGGGCGA | -0.167
AATCGATT | -0.24
CAGCCACA | -0.165
CCCAAGCC | 0.00952
CTGGCACC | -0.123
CTGCGTAC | -0.144
ACACGTGC | -0.0793
CAACGGTA | -0.0237
ATAAGGAC | -0.0864
ACGGGAGC | 0.147
CACAGCAG | -0.204
TAGGTCCA | -0.182
CCAGATGA | -0.15
AATACGTA | -0.162
ATTATCAC | 0.0126
TATCTTAA | -0.0139
GCCGGTCA | 0.0917
GGTGTTAA | 0.0998
ACCATTGC | 0.0356
GCGAAACA | -0.137
CGAGTTAC | 0.14

Sequence | PBM E-score
AGAGGTTC | 0.0565
CTCACGAG | -0.16
CTCAATTC | -0.0727
ATCATGCA | -0.198
GTGTGTAA | -0.0719
ACGATCGT | 0.17
AGAACCAC | -0.152
GGCCTGTA | -0.0127
CCTCTTGA | -0.235
GTGGGGAA | -0.0909
AAGGCCAT | -0.0904
CTGCGCAC | -0.0303
TATCAAAA | -0.00412
GATCACAA | 0.0092
ATATACAA | -0.0112
CTCGTCAC | 0.0272
ACTACATC | -0.103
GAAACGGC | 0.0806
CAACTTTA | -0.143
